From PubChem BioAssay AID624296 (National Center for Advancing Translational Sciences (NCATS), 2012)
Values joined by “and” are separate entries in the source; they are usually repeats but may differ in a detail not shown here. Equal values may be shown once. Out of some 350,000 compounds screened, about 9,900 (2.8%) were called active. This list was built around the results that the source calls inconclusive (neither active nor inactive); the mix of calls is not that of the screen. The call rests on the fitted dose curve; in most records, active means well fitted activation curve with a large enough effect; inconclusive means small, poorly fitted or top-dose-only effect; inactive means no such curve, though single readings can be large or run the other way. A potency beside an inconclusive call is a rough fit, not a confirmed value.
Potency means the concentration at half of the fitted maximal effect; tags describe the fitted curve by direction and shape.

Assay: A quantitative high throughput screen for small molecules that induce DNA re-replication in MCF 10a normal breast cells. Further: nearly all actives have a fitted effect of over 50% in size.
Conditions: MCF 10A DNA re-replication, Hoechst nuclear intensity, 48 h; series mostly up to 46.1 µM
For `Cc1ccc(S(=O)(=O)N(C)C2(C)CCS(=O)(=O)C2)cc1` (stereo not drawn), the Potency was “inactive”. For `CCOC(=O)c1ccc(NC(=O)NCCc2cnc[nH]2)cc1`, the Potency was “inactive”. For `CC(O)(c1ccccc1)C(c1ccccc1)C1CCCCN1` (stereo not drawn), the Potency was “inactive”. In the case of `CC(C)(C)NC(=S)N/N=C\c1ccc(-c2ccc([N+](=O)[O-])cc2)o1`, the Potency is reported as active: 16.4 µM. For `Cc1ccc(C2N(c3nccs3)C(=O)C3CCCN32)cc1` (stereo not drawn), the Potency was “inactive”. With `O=C(Nc1cccc(S(=O)(=O)N2CCCC2)c1)c1cccc(OC(F)F)c1` the Potency was inconclusive: 18.4 µM [activator, partial curve, poor fit]. In the case of `CCOC(=O)c1cnc(-n2nc(C)cc2C)nc1NCCc1ccccc1`, the Potency is reported as inconclusive: 16.4 µM [activator, single point]. In the case of `CCc1cc(C(=O)N(CC)CC(=O)Nc2ccc(OC)cc2)sc1C`, the Potency is reported as inconclusive: 0.0041 µM [activator, full curve, poor fit]. For `COc1ccc2c(c1)c(C(=O)CN1CCN(C(=O)c3ccco3)CC1)c(C)n2C`, the Potency was inconclusive: 23.1 µM [activator, partial curve, poor fit]. In the case of `O=C(CCC1CC(=O)Nc2ccccc21)NCc1ccc(F)cc1` (stereo not drawn), the Potency is reported as inconclusive: 23.1 µM [activator, single point]. With `COc1ccc2c(C)cc(=O)oc2c1` the Potency was “inactive”. For `O=C(NCc1ccco1)c1ccc(Cl)c(S(=O)(=O)N2CCc3ccccc32)c1`, the Potency was “inactive”. In the case of `COCCNC(=S)N1CCC(Cc2ccccc2)CC1`, the Potency is reported as “inactive”. In the case of `C=CCN1C(=O)c2ccccc2Sc2ccc(C(=O)NCCC)cc21`, the Potency is reported as “inactive”. With `CC(NCCN(C)C)C1CCC2C3CCc4cc(O)ccc4C3CCC12C` (stereo not drawn) the Potency was “inactive”. With `O=C(c1ccc(-n2cncn2)c([N+](=O)[O-])c1)N1CCN(S(=O)(=O)c2cccc(F)c2)CC1` the Potency was “inactive”. For `Cc1cc(O)c(C(C)C)cc1N=Cc1cc([N+](=O)[O-])ccc1O`, the Potency was inconclusive: 0.326 µM [activator, full curve, poor fit]. For `CC1CCCCN1C(=O)Cn1cnc2c1c(=O)n(C)c(=O)n2C` (stereo not drawn), the Potency was “inactive”. For `O=C1OC(c2ccc(O)cc2)(c2ccc(O)cc2)c2ccccc21`, the Potency was “inactive and inconclusive: 16.4 µM [activator, partial curve, poor fit] and inconclusive: 18.4 µM [activator, single point]”. With `CC(=O)NC(=O)NC1OC(=O)C(Cl)=C1Cl` (stereo not drawn) the Potency was inconclusive: 29.1 µM [activator, single point]. In the case of `COc1ccc(CNC(=O)c2c(N)n(CCCN3CCOCC3)c3nc4ccccc4nc23)cc1`, the Potency is reported as inconclusive: 5.17 µM [activator, partial curve, poor fit]. For `O=C1CCCC2=C1C1(CCCCC1)N=C(Nc1nc3ccccc3s1)N2`, the Potency was active: 10.3 µM. For `CCOc1ccc(NC(=O)c2ccc(NC(=O)c3ccc(NC(N)=O)cc3)cc2)cc1`, the Potency was “inactive”. With `COc1ccc(NC(=O)c2cc3ccccc3cc2O)cc1` the Potency was active: 4.61 µM. With `COc1ccc(NC(=O)/C(C#N)=C/c2c(C)nn(-c3ccc(F)cc3)c2Cl)cc1OC` the Potency was inconclusive: 29.1 µM [activator, single point]. For `CS(=O)(=O)c1ccc2nc(NC3(C(F)(F)F)N=C4SCCN4C3=O)sc2c1` (stereo not drawn), the Potency was inconclusive: 29.1 µM [activator, single point]. With `COc1ccc(C(=O)NNC2=Nc3cccc4cccc2c34)cc1` the Potency was inconclusive: 29.1 µM [activator, single point]. In the case of `COc1ccc2nc(NC(=O)c3ccc(F)cc3)sc2c1`, the Potency is reported as “inactive”. With `CN1CCN(/C=N/c2c(C#N)cnn2Cc2ccccc2)CC1` the Potency was “inactive”. In the case of `COc1cccc(NC(=S)NNC(=O)c2ccccc2OC(F)F)c1`, the Potency is reported as inconclusive: 18.4 µM [activator, partial curve, poor fit]. With `CC(C)(C)C(=O)NCCCc1ccccc1` the Potency was “inactive”. With `O=C(/C=C/c1ccco1)Nc1cc(Cl)ccc1C(=O)O` the Potency was inconclusive: 29.1 µM [activator, single point]. For `CSc1nc2ccc(S(=O)(=O)N3CCOCC3)cc2s1`, the Potency was “inactive”. In the case of `CCc1cc(-c2nc(N)ncc2-c2ccc(Br)cc2)c(O)cc1OC`, the Potency is reported as active: 18.4 µM. With `Cc1cc(=O)n2c(C(=O)Nc3ccc(C)c(C)c3)c(C(=O)Nc3ccccc3)sc2n1` the Potency was inconclusive: 20.6 µM [activator, single point]. With `NC(=O)CN(N=Nc1cccc([N+](=O)[O-])c1)c1cccc([N+](=O)[O-])c1` the Potency was inconclusive: 29.1 µM [activator, single point]. For `Clc1ccc(-c2ccc(SCc3ccccn3)nn2)cc1`, the Potency was inconclusive: 23.1 µM [activator, partial curve, poor fit]. With `COc1cc(NC(=O)c2cccc(Cl)c2)c(OC)cc1NC(=O)CN1CCCCC1` the Potency was inconclusive: 3.16 µM [activator, full curve, poor fit]. With `N/C(=N\OC(=O)N1c2ccccc2Sc2ccccc21)c1ccc(Br)cc1` the Potency was active: 5.17 µM. For `CN1C=CC2=C(C#N)C(N)C(C#N)(C#N)[C@H](c3ccccc3)[C@H]2C1` (stereo partly drawn), the Potency was “inactive”. With `COc1c(Cl)cc(C(=O)NN)cc1Cl` the Potency was inconclusive: 5.17 µM [activator, single point]. With `C=CCn1c2ccccc2c2nnc(SCN3C(=O)c4ccccc4C3=O)nc21` the Potency was “inactive”. With `O=C(CS(=O)(=O)Cc1ccccc1)N1CCc2ccccc21` the Potency was “inactive”. For `CCc1nnc(NC(=O)Cc2ccc(S(=O)(=O)N3CCCCC3)cc2)s1`, the Potency was inconclusive: 16.4 µM [activator, single point]. For `O=C(c1noc2c1CCc1ccccc1-2)N1CCCc2ccccc21`, the Potency was inconclusive: 0.58 µM [activator, full curve, poor fit]. In the case of `C=CCN(C(=O)CSC1=NC(=O)CN1C(C)=O)c1nc(C)c(-c2ccccc2)s1`, the Potency is reported as active: 11.6 µM. With `COc1ccc(O)c(-c2cc(-c3ccccc3Cl)[nH]n2)c1` the Potency was inconclusive: 29.1 µM [activator, single point]. For `COc1ccc(CNc2ncc(-c3ccc(F)cc3)n2C)c2ccccc12`, the Potency was inconclusive: 18.4 µM [activator, single point].
